In the antibiotic and cytotoxicity screens of Wong et al. (2023):
The other results are listed elsewhere or left out.

These compounds were tested on S. aureus RN4220 (assay: growth inhibition call (relative growth <= 0.2)). Settings: 50 µM.

Growth inhibition call, inactive:
Cc1noc(C)c1S(=O)(=O)N(C)C[C@H]1Oc2ccc(NC(=O)Nc3ccc4c(c3)OCO4)cc2CC(=O)N([C@@H](C)CO)C[C@H]1C, OC[C@@H](O)[C@@H](O[C@@H]1O[C@H](CO)[C@H](O)[C@H](O)[C@H]1O)[C@H](O)[C@@H](O)CO, C[C@@H]1CCCCO[C@H](CN(C)Cc2ccncc2)[C@@H](C)CN([C@H](C)CO)C(=O)c2cc(NS(C)(=O)=O)ccc2O1, COc1ccc(S(=O)(=O)N(C)C[C@@H]2Oc3c(NS(=O)(=O)c4ccc(C)cc4)cccc3C(=O)N([C@@H](C)CO)C[C@H]2C)cc1, O=C(C[C@@H]1C[C@H]2c3cc(NS(=O)(=O)c4ccc(F)cc4)ccc3O[C@H]2[C@@H](CO)O1)NCc1ccccc1, COc1cc2c(N3CCN(C(=O)Nc4ccc(OC(C)C)cc4)CC3)ncnc2cc1OCCCN1CCCCC1, COc1ccc(-c2cnc3c(c2)C(=O)N([C@H](C)CO)C[C@H](C)[C@H](CN(C)S(=O)(=O)c2ccccc2)O3)cc1, CCNC(=O)C[C@H]1CC[C@@H](NC(=O)C2CCOCC2)[C@@H](CO)O1, Cn1cnc(S(=O)(=O)N[C@H]2C=C[C@@H](CC(=O)N3CCN(c4ccccc4)CC3)O[C@H]2CO)c1, C[C@@H]1CN([C@@H](C)CO)C(=O)c2cc(NC(=O)Nc3ccc4c(c3)OCO4)ccc2O[C@@H](C)CCCCO[C@@H]1CN(C)S(=O)(=O)c1ccc(F)cc1, O=C(C[C@H]1C[C@H]2c3cc(NC(=O)C4CCOCC4)ccc3O[C@H]2[C@@H](CO)O1)NCc1cc(F)ccc1F, C[C@@H]1CN([C@@H](C)CO)C(=O)c2cc(NC(=O)Cc3cn(C)c4ccccc34)ccc2O[C@@H]1CN(C)Cc1ccc(C(F)(F)F)cc1, C[C@H]1CN([C@@H](C)CO)C(=O)CCCn2cc(nn2)CO[C@@H]1CN(C)S(=O)(=O)c1ccc(-n2cccn2)cc1, CC(C)(C)C#CC(=O)C#CC(C)(C)C, Cc1noc(C)c1NC(=O)Nc1ccc2c(c1)C(=O)N([C@H](C)CO)C[C@H](C)[C@@H](CN(C)Cc1ccc(C(=O)Nc3ccccc3N)cc1)O2, CCN1CCN(C2=C(NS(=O)(=O)c3ccc(Br)cc3)C(=O)c3ccccc3C2=O)CC1, C[C@@H]1CN([C@H](C)CO)C(=O)c2cc(NS(=O)(=O)c3ccc(Cl)cc3)ccc2O[C@@H](C)CCCCO[C@H]1CN(C)C(=O)Nc1ccc(C(F)(F)F)cc1, C[C@@H]1CCCCO[C@@H](CN(C)Cc2ccccc2)[C@@H](C)CN([C@H](C)CO)C(=O)c2cc(NC(=O)Cc3ccccc3)ccc2O1, C[C@H](CO)N1C[C@H](C)[C@@H](CN(C)C(=O)Nc2ccc(C(F)(F)F)cc2)Oc2c(NS(=O)(=O)c3ccc(F)cc3)cccc2C1=O, Cc1noc(C)c1NC(=O)N(C)C[C@@H]1Oc2ccc(NC(=O)c3ccncc3)cc2CC(=O)N([C@@H](C)CO)C[C@@H]1C, Cn1cnc(S(=O)(=O)N2C[C@H](O)COC[C@@H]3O[C@H](CC(=O)NCc4cc(F)cc(F)c4)CC[C@H]32)c1, C[C@@H]1CCCCO[C@H](CN(C)Cc2ccc(C(=O)O)cc2)[C@@H](C)CN([C@H](C)CO)C(=O)c2cc(NC(=O)Cc3ccccc3)ccc2O1, C[C@H]1CN([C@@H](C)CO)C(=O)c2cc(NC(=O)CCCN(C)C)ccc2O[C@@H]1CN(C)C(=O)Nc1ccc2c(c1)OCO2, C[C@@H]1CN([C@H](C)CO)S(=O)(=O)c2ccc(-c3ccncc3)cc2O[C@H]1CN(C)Cc1ccc(Oc2ccccc2)cc1, C[C@H](CO)N1C[C@H](C)[C@@H](CN(C)S(=O)(=O)c2cn(C)cn2)Oc2ccc(NS(=O)(=O)c3cccs3)cc2C1=O, C[C@H](O)CC1=C[C@H](O)[C@@H](C)OC1=O, C[C@H]1CN([C@@H](C)CO)C(=O)Cc2cc(NS(=O)(=O)c3cccs3)ccc2O[C@@H]1CN(C)S(=O)(=O)c1cccs1, C[C@H](O)c1nc(=O)c2ccccc2[nH]1, CO[C@H]1C[C@@H](C[C@@H](C)[C@H]2CC(=O)[C@@H](C)/C=C(\C)[C@@H](O)[C@@H](OC)C(=O)[C@@H](C)C[C@@H](C)/C=C/C=C/C=C(\C)[C@H](OC)C[C@H]3CC[C@@H](C)[C@@](O)(O3)C(=O)C(=O)N3CCCC[C@@H]3C(=O)O2)CC[C@@H]1O, Cn1cnc(S(=O)(=O)N[C@@H]2CC[C@H](CC(=O)Nc3ccccc3)O[C@H]2CO)c1, C[C@@H]1CN([C@H](C)CO)C(=O)Cc2cc(NS(=O)(=O)c3cccs3)ccc2O[C@H]1CN(C)S(=O)(=O)c1ccc(F)cc1, C[C@@H]1CCCCO[C@@H](CN(C)S(=O)(=O)c2ccc(Cl)cc2)[C@H](C)CN([C@H](C)CO)C(=O)c2cc(NS(=O)(=O)c3ccc(F)cc3)ccc2O1, Cc1noc(C)c1NC(=O)Nc1cccc2c1O[C@H](CN(C)Cc1ccc(C(=O)Nc3ccccc3N)cc1)[C@H](C)CN([C@H](C)CO)C2=O, O=C(CN1CCOCC1)N[C@@H]1CC[C@H](CCNS(=O)(=O)c2ccccc2F)O[C@H]1CO, Cc1ccc(S(=O)(=O)N2C[C@H](O)COC[C@H]3O[C@@H](CC(=O)NCCN4CCCCC4)CC[C@@H]32)cc1, C[C@@H]1CCCCO[C@@H](CN(C)C(=O)C2CCCCC2)[C@H](C)CN([C@@H](C)CO)C(=O)c2cc(NC(=O)C3CCCCC3)ccc2O1, CCOCCOc1ccccc1C(N)=O, C[C@H](CO)N1C[C@H](C)[C@@H](CN(C)C(=O)Nc2cccc3ccccc23)Oc2c(NS(=O)(=O)c3ccc(Cl)cc3)cccc2C1=O, C[C@@H]1CN([C@@H](C)CO)C(=O)Cc2cc(NC(=O)Nc3ccc(F)cc3)ccc2O[C@@H]1CN(C)C(=O)Nc1cccc2ccccc12, Cl.NNc1nncc2ccccc12
